The record followed here is the supplement of paper PMC8728848.

Holding throughout (experiment): glycan array binding signal (z-score within array); higher = stronger binding
Holding throughout (conditions): glycan notation: IUPAC condensed, linker removed

Experiment [1] concerns the target Gal(b1-4)GlcNAc(b1-2)[Gal(b1-4)GlcNAc(b1-6)]Man(a1-6)[Gal(b1-4)GlcNAc(b1-2)Man(a1-3)]Man(b1-4)GlcNAc(b1-4)[Fuc(a1-6)]GlcNAc. The method in brief:
(§1)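 Negative Z-scores can be read as non-binding. The Z-score is calculated within each array and then averaged across arrays of one protein sequence at different concentrations or buffers and across linkers. Arrays, 3228 in all, were curated from the Consortium for Functional Glycomics database and kept only where the protein sequence was available.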

Experiment [2] deals with Gal(b1-4)GlcNAc(b1-2)[Gal(b1-4)GlcNAc(b1-6)]Man(a1-6)[GlcNAc(b1-4)][Gal(b1-4)GlcNAc(b1-2)Man(a1-3)]Man(b1-4)GlcNAc(b1-4)GlcNAc. The method in brief:
as §1

Experiment [3] concerns the target Gal(b1-4)GlcNAc(b1-2)[Gal(b1-4)GlcNAc(b1-6)]Man(a1-6)[GlcNAc(b1-4)][Gal(b1-4)GlcNAc(b1-2)[Gal(b1-4)GlcNAc(b1-4)]Man(a1-3)]Man(b1-4)GlcNAc(b1-4)[Fuc(a1-6)]GlcNAc. The method in brief:
as §1

The target of experiment [4] is Gal(b1-4)GlcNAc(b1-3)Gal(b1-3)GalNAc. The method in brief: as §1
Experiment [5] has as its target Gal(b1-4)GlcNAc(b1-3)Gal(b1-3)GlcNAc. The method in brief: as §1
In experiment [6] the target is Gal(b1-4)GlcNAc(b1-3)Gal(b1-4)Glc. In outline:
as §1

Experiment [7] has as its target Gal(b1-4)GlcNAc(b1-3)Gal(b1-4)GlcNAc. The method in brief: as §1
For experiment [8], the target named is Gal(b1-4)GlcNAc(b1-3)Gal(b1-4)GlcNAc(b1-2)Man(a1-3)[Gal(b1-4)GlcNAc(b1-3)Gal(b1-4)GlcNAc(b1-2)Man(a1-6)]Man(b1-4)GlcNAc(b1-4)GlcNAc. The method in brief: as §1
Experiment [9] concerns the target Gal(b1-4)GlcNAc(b1-3)Gal(b1-4)GlcNAc(b1-2)Man(a1-3)[Gal(b1-4)GlcNAc(b1-3)Gal(b1-4)GlcNAc(b1-2)Man(a1-6)]Man(b1-4)GlcNAc(b1-4)[Fuc(a1-6)]GlcNAc. The method in brief: as §1
The target in experiment [10] is Gal(b1-4)GlcNAc(b1-3)Gal(b1-4)GlcNAc(b1-2)[Gal(b1-4)GlcNAc(b1-3)Gal(b1-4)GlcNAc(b1-6)]Man(a1-6)[Gal(b1-4)GlcNAc(b1-3)Gal(b1-4)GlcNAc(b1-2)Man(a1-3)]Man(b1-4)GlcNAc(b1-4)GlcNAc. The method in brief:
as §1

Experiment [11] concerns the target Gal(b1-4)GlcNAc(b1-3)Gal(b1-4)GlcNAc(b1-2)[Gal(b1-4)GlcNAc(b1-3)Gal(b1-4)GlcNAc(b1-6)]Man(a1-6)[Gal(b1-4)GlcNAc(b1-3)Gal(b1-4)GlcNAc(b1-2)Man(a1-3)]Man(b1-4)GlcNAc(b1-4)[Fuc(a1-6)]GlcNAc. In outline: as §1
Experiment [12] concerns the target Gal(b1-4)GlcNAc(b1-3)Gal(b1-4)GlcNAc(b1-3)Gal(b1-4)GlcNAc. The method in brief:
as §1

For experiment [13], the target named is Gal(b1-4)GlcNAc(b1-3)Gal(b1-4)GlcNAc(b1-3)Gal(b1-4)GlcNAc(b1-2)Man(a1-3)[Gal(b1-4)GlcNAc(b1-3)Gal(b1-4)GlcNAc(b1-3)Gal(b1-4)GlcNAc(b1-2)Man(a1-6)]Man(b1-4)GlcNAc(b1-4)GlcNAc. In outline:
as §1

The target of experiment [14] is Gal(b1-4)GlcNAc(b1-3)Gal(b1-4)GlcNAc(b1-3)Gal(b1-4)GlcNAc(b1-2)Man(a1-3)[Gal(b1-4)GlcNAc(b1-3)Gal(b1-4)GlcNAc(b1-3)Gal(b1-4)GlcNAc(b1-2)Man(a1-6)]Man(b1-4)GlcNAc(b1-4)[Fuc(a1-6)]GlcNAc. The method in brief:
as §1

Experiment [15] concerns the target Gal(b1-4)GlcNAc(b1-3)Gal(b1-4)GlcNAc(b1-3)Gal(b1-4)GlcNAc(b1-2)[Gal(b1-4)GlcNAc(b1-3)Gal(b1-4)GlcNAc(b1-3)Gal(b1-4)GlcNAc(b1-6)]Man(a1-6)[Gal(b1-4)GlcNAc(b1-3)Gal(b1-4)GlcNAc(b1-3)Gal(b1-4)GlcNAc(b1-2)Man(a1-3)]Man(b1-4)GlcNAc(b1-4)[Fuc(a1-6)]GlcNAc. The method in brief: as §1
The target in experiment [16] is Gal(b1-4)GlcNAc(b1-3)Gal(b1-4)GlcNAc(b1-3)Gal(b1-4)GlcNAc(b1-3)Gal(b1-4)GlcNAc(b1-2)Man(a1-3)[Gal(b1-4)GlcNAc(b1-3)Gal(b1-4)GlcNAc(b1-3)Gal(b1-4)GlcNAc(b1-3)Gal(b1-4)GlcNAc(b1-2)Man(a1-6)]Man(b1-4)GlcNAc(b1-4)GlcNAc. The method in brief:
as §1

Experiment [17] addresses Gal(b1-4)GlcNAc(b1-3)Gal(b1-4)GlcNAc(b1-3)Gal(b1-4)GlcNAc(b1-3)Gal(b1-4)GlcNAc(b1-2)Man(a1-3)[Gal(b1-4)GlcNAc(b1-3)Gal(b1-4)GlcNAc(b1-3)Gal(b1-4)GlcNAc(b1-3)Gal(b1-4)GlcNAc(b1-2)Man(a1-6)]Man(b1-4)GlcNAc(b1-4)[Fuc(a1-6)]GlcNAc. The method in brief:
as §1

Experiment [18] addresses Gal(b1-4)GlcNAc(b1-3)Gal(b1-4)GlcNAc(b1-3)Gal(b1-4)GlcNAc(b1-3)Gal(b1-4)GlcNAc(b1-2)[Gal(b1-4)GlcNAc(b1-3)Gal(b1-4)GlcNAc(b1-3)Gal(b1-4)GlcNAc(b1-3)Gal(b1-4)GlcNAc(b1-6)]Man(a1-6)[Gal(b1-4)GlcNAc(b1-3)Gal(b1-4)GlcNAc(b1-3)Gal(b1-4)GlcNAc(b1-3)Gal(b1-4)GlcNAc(b1-2)Man(a1-3)]Man(b1-4)GlcNAc(b1-4)[Fuc(a1-6)]GlcNAc. In outline: as §1
The target in experiment [19] is Gal(b1-4)GlcNAc(b1-3)Gal(b1-4)GlcNAc(b1-3)Gal(b1-4)GlcNAc(b1-3)Gal(b1-4)GlcNAc(b1-3)Gal(b1-4)GlcNAc(b1-2)Man(a1-3)[Gal(b1-4)GlcNAc(b1-3)Gal(b1-4)GlcNAc(b1-3)Gal(b1-4)GlcNAc(b1-3)Gal(b1-4)GlcNAc(b1-3)Gal(b1-4)GlcNAc(b1-2)Man(a1-6)]Man(b1-4)GlcNAc(b1-4)GlcNAc. The method in brief: as §1
Experiment [20] deals with Gal(b1-4)GlcNAc(b1-3)Gal(b1-4)GlcNAc(b1-3)Gal(b1-4)GlcNAc(b1-3)Gal(b1-4)GlcNAc(b1-3)Gal(b1-4)GlcNAc(b1-2)Man(a1-3)[Gal(b1-4)GlcNAc(b1-3)Gal(b1-4)GlcNAc(b1-3)Gal(b1-4)GlcNAc(b1-3)Gal(b1-4)GlcNAc(b1-3)Gal(b1-4)GlcNAc(b1-2)Man(a1-6)]Man(b1-4)GlcNAc(b1-4)[Fuc(a1-6)]GlcNAc. In outline: as §1
For experiment [21], the target named is Gal(b1-4)GlcNAc(b1-3)Gal(b1-4)GlcNAc(b1-3)Gal(b1-4)GlcNAc(b1-3)Gal(b1-4)GlcNAc(b1-3)Gal(b1-4)GlcNAc(b1-2)[Gal(b1-4)GlcNAc(b1-3)Gal(b1-4)GlcNAc(b1-3)Gal(b1-4)GlcNAc(b1-3)Gal(b1-4)GlcNAc(b1-3)Gal(b1-4)GlcNAc(b1-6)]Man(a1-6)[Gal(b1-4)GlcNAc(b1-3)Gal(b1-4)GlcNAc(b1-3)Gal(b1-4)GlcNAc(b1-3)Gal(b1-4)GlcNAc(b1-3)Gal(b1-4)GlcNAc(b1-2)Man(a1-3)]Man(b1-4)GlcNAc(b1-4)[Fuc(a1-6)]GlcNAc. The method in brief: as §1

Experiment [22] deals with Gal(b1-4)GlcNAc(b1-3)Gal(b1-4)GlcNAc(b1-3)Gal(b1-4)GlcNAc(b1-3)Gal(b1-4)GlcNAc(b1-3)Gal(b1-4)GlcNAc(b1-3)Gal(b1-4)GlcNAc(b1-2)Man(a1-3)[Gal(b1-4)GlcNAc(b1-3)Gal(b1-4)GlcNAc(b1-3)Gal(b1-4)GlcNAc(b1-3)Gal(b1-4)GlcNAc(b1-3)Gal(b1-4)GlcNAc(b1-3)Gal(b1-4)GlcNAc(b1-2)Man(a1-6)]Man(b1-4)GlcNAc(b1-4)GlcNAc. In outline: as §1
The target of experiment [23] is Gal(b1-4)GlcNAc(b1-3)Gal(b1-4)GlcNAc(b1-3)GalNAc. The method in brief: as §1

The other results are listed elsewhere or left out.

For CTAEGIKKFEGDGYELFKDNFPAGEKFDNDDTNDQFYTVIF [MUB40 (Lactobacillus reuteri)], the “glycan array binding signal (z-score)” value in experiment [1] is 0.328; in [2] it was -0.272; in experiment [3] it was -0.782; in experiment [4] it was 1.59; in [5], 0.806; in experiment [6] it was -0.492. Also, the “glycan array binding signal (z-score)” value was 0.002 in experiment [7]; 0.708 in [8]; 0.071 in experiment [9]; -0.339 in experiment [10]; -0.191 in [11]; -0.72 in experiment [12]. The “glycan array binding signal (z-score)” value in experiment [13] was 1.1; in experiment [14], 1.93; in experiment [15], -0.199; in experiment [16], -0.35; in experiment [17] it was -0.265; in experiment [18], -0.319. The “glycan array binding signal (z-score)” value in experiment [19] is 3.44; in [20], -0.204; in experiment [21], 2.67; in experiment [22], 0.268; in experiment [23], -0.362.
